# In the supplement of paper PMC8728848:
# The other results are listed elsewhere or left out.
# B1: a L Fucosidase (Streptosporangium roseum), D2B1P1_STRRD (protein)
# chain: MRRKLLLVPAVGLLVIGSIFATQPVASADTPPVYEPTVESLNSHPVPQWFNDDKFGIFIHWGAYSVPAWGPRGSYAEWYGNYMNAGGSATNAHHKATYGQDFNYDAFLQQWKAEKFDPADWVKLFKDAGAKYFVLTSKHHEGMALWDSKSSGRDSVDLGPGRDLAKELFDAARKDEAKLKAGFYYSLYEWYNPAYTGRPATNPYTGAEIPYTGAPGGGDYVKDYMLPQMRELIDGYDPDIIWCDGQWEKPASYWNTAGVIADYYNKALNSGKEVAVANRCKIQSGNLDSPELDFQTPEYTVKPDIDPVKWESSRGIAHSYGYNQNEPEEDHLTSDQLVDSLVDIVSKNGNLLLDIGPKADGTIPEIQRQRLLDIGAWLKANGEAIYGTTYWNRAEEKGGPDDVRYTAKDATLYATALKWPGEQLTLGADLPVDHSTRITMLGSGARLSWSRDEQGRVVVNTPQEAGKHAYVFKIETPGVRSLLRTSSSLAKEIAPGRTISGELTVTNPGKRHTPATKLSLTVPQGWTATLGAPRVRPLGPGESVKVPISVSAPEGVAPAPYTLGLYQRTGRMGTTTALPLTVNRPNLSLGKPATQKSTGYDAPASRAVDGNTGGDWSAGSTTHTAEPEKQAWWQVDLGASARLDSVDVWNRLDCCADRLKDFWVMASDQPFTTDDLDQARTAPGVTAVHVGEQAGSPSKVKLPEGTRGRYVRIQLASPSNPLSLAEVQVRGSMARPNLSLGKPATQKSTGYDAPASRAVDGNTGGDWSAGSTTHTAEPEKQAWWQVDLGASARLDSVDVWNRLDCCADRLKDFWVMASDQPFTTDDLDQARTAPGVTAVHVGEQAGSPSKVKLPEGTRGRYVRIQLASPSNPLSLAEVQVRLEHHHHHHS
# How the values were obtained:
# Test in all cases: glycan array binding signal (z-score within array); higher = stronger binding
# Conditions in all cases: glycan notation: IUPAC condensed, linker removed
# [1] = molecular target: Neu5Ac(a2-6)GlcNAc(b1-4)GlcNAc(b1-4)GlcNAc
# Outline: (§1)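 Glycan array data were curated from 3228 arrays in the Consortium for Functional Glycomics database and kept only where the protein sequence was available. Glycan names were converted to IUPAC-condensed notation, and columns mapping to the same glycan were averaged. The binding signal is a within-array Z-score, averaged across arrays of the same protein sequence at different concentrations or buffers and across linkers. Negative Z-scores can be read as non-binding.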
# Neu5Ac(a2-8)Neu5Ac = molecular target: Neu5Ac(a2-8)Neu5Ac
# Outline: as §1
# [2] = molecular target: Neu5Ac(a2-8)Neu5Ac(a2-3)Gal(b1-3)GalNAc(b1-4)[Neu5Ac(a2-3)]Gal(b1-4)Glc
# Outline: as §1
# [3] = molecular target: Neu5Ac(a2-8)Neu5Ac(a2-3)Gal(b1-3)GalNAc(b1-4)[Neu5Ac(a2-8)Neu5Ac(a2-3)]Gal(b1-4)Glc
# Outline: as §1
# [4] = molecular target: Neu5Ac(a2-8)Neu5Ac(a2-3)Gal(b1-4)Glc
# Outline: as §1
# [5] = molecular target: Neu5Ac(a2-8)Neu5Ac(a2-3)Gal(b1-4)GlcNAc
# Outline: as §1
# [6] = molecular target: Neu5Ac(a2-8)Neu5Ac(a2-3)[Gal(b1-3)GalNAc(b1-4)]Gal(b1-4)Glc
# Outline: as §1
# [7] = molecular target: Neu5Ac(a2-8)Neu5Ac(a2-3)[GalNAc(b1-4)]Gal(b1-4)Glc
# Outline: as §1
# [8] = molecular target: Neu5Ac(a2-8)Neu5Ac(a2-8)Neu5Ac
# Outline: as §1
# [9] = molecular target: Neu5Ac(a2-8)Neu5Ac(a2-8)Neu5Ac(a2-3)Gal(b1-4)Glc
# Outline: as §1
# [10] = molecular target: Neu5Ac(a2-8)Neu5Ac(a2-8)Neu5Ac(a2-3)[Gal(b1-3)GalNAc(b1-4)]Gal(b1-4)Glc
# Outline: as §1
# [11] = molecular target: Neu5Ac(a2-8)Neu5Ac(a2-8)Neu5Ac(a2-3)[GalNAc(b1-4)]Gal(b1-4)Glc
# Outline: as §1
# [12] = molecular target: Neu5Ac(a2-8)Neu5Ac(a2-8)Neu5Ac(a2-8)Neu5Ac(a2-3)[GalNAc(b1-4)]Gal(b1-4)Glc
# Outline: as §1
# [13] = molecular target: Neu5Ac(a2-8)Neu5Gc(a2-3)Gal(b1-4)GlcNAc
# Outline: as §1
# [14] = molecular target: Neu5Ac(b2-6)Gal(b1-4)GlcNAc
# Outline: as §1
# Neu5Ac(b2-6)GalNAc = molecular target: Neu5Ac(b2-6)GalNAc
# Outline: as §1
# [15] = molecular target: Neu5Ac9Ac(a2-3)Gal(b1-3)GlcNAc
# Outline: as §1
# [16] = molecular target: Neu5Ac9Ac(a2-3)Gal(b1-4)GlcNAc
# Outline: as §1
# [17] = molecular target: Neu5Ac9Ac(a2-6)Gal(b1-4)GlcNAc
# Outline: as §1
# [18] = molecular target: Neu5Gc(a2-3)Gal(b1-3)GlcNAc
# Outline: as §1
# [19] = molecular target: Neu5Gc(a2-3)Gal(b1-3)[Fuc(a1-4)]GlcNAc
# Outline: as §1
# Neu5Gc(a2-3)Gal(b1-4)Glc = molecular target: Neu5Gc(a2-3)Gal(b1-4)Glc
# Outline: as §1
# [20] = molecular target: Neu5Gc(a2-3)Gal(b1-4)GlcNAc
# Outline: as §1
# [21] = molecular target: Neu5Gc(a2-3)Gal(b1-4)GlcNAc(b1-3)Gal(b1-4)GlcNAc(b1-2)Man(a1-3)[Neu5Gc(a2-3)Gal(b1-4)GlcNAc(b1-3)Gal(b1-4)GlcNAc(b1-2)Man(a1-6)]Man(b1-4)GlcNAc(b1-4)GlcNAc
# Outline: as §1
# [22] = molecular target: Neu5Gc(a2-3)Gal(b1-4)[Fuc(a1-3)]GlcNAc
# Outline: as §1
# [23] = molecular target: Neu5Gc(a2-6)Gal(b1-4)GlcNAc
# Outline: as §1
# Neu5Gc(a2-6)GalNAc = molecular target: Neu5Gc(a2-6)GalNAc
# Outline: as §1
# [24] = molecular target: Neu5Gc(a2-8)Neu5Ac(a2-3)Gal(b1-4)GlcNAc
# Outline: as §1
# [25] = molecular target: Neu5Gc(a2-8)Neu5Gc(a2-3)Gal(b1-4)GlcNAc
# Outline: as §1
# [26] = molecular target: Neu5Gc(a2-8)Neu5Gc(a2-3)Gal(b1-4)GlcNAc(b1-3)Gal(b1-4)GlcNAc
# Outline: as §1
binder,measurement,setting,value
B1,glycan array binding signal (z-score),[1],-0.366
same,glycan array binding signal (z-score),Neu5Ac(a2-8)Neu5Ac,-0.284
same,glycan array binding signal (z-score),[2],-0.521
same,glycan array binding signal (z-score),[3],-0.253
same,glycan array binding signal (z-score),[4],-0.55
same,glycan array binding signal (z-score),[5],-0.592
same,glycan array binding signal (z-score),[6],-0.226
same,glycan array binding signal (z-score),[7],-0.558
same,glycan array binding signal (z-score),[8],-0.449
same,glycan array binding signal (z-score),[9],-0.339
same,glycan array binding signal (z-score),[10],-0.494
same,glycan array binding signal (z-score),[11],-0.388
same,glycan array binding signal (z-score),[12],-0.261
same,glycan array binding signal (z-score),[13],-0.341
same,glycan array binding signal (z-score),[14],-0.312
same,glycan array binding signal (z-score),Neu5Ac(b2-6)GalNAc,-0.62
same,glycan array binding signal (z-score),[15],-0.339
same,glycan array binding signal (z-score),[16],-0.287
same,glycan array binding signal (z-score),[17],-0.548
same,glycan array binding signal (z-score),[18],0.239
same,glycan array binding signal (z-score),[19],0.103
same,glycan array binding signal (z-score),Neu5Gc(a2-3)Gal(b1-4)Glc,-0.051
same,glycan array binding signal (z-score),[20],0.071
same,glycan array binding signal (z-score),[21],0.548
same,glycan array binding signal (z-score),[22],-0.486
same,glycan array binding signal (z-score),[23],-0.317
same,glycan array binding signal (z-score),Neu5Gc(a2-6)GalNAc,-0.419
same,glycan array binding signal (z-score),[24],-0.341
same,glycan array binding signal (z-score),[25],-0.465
same,glycan array binding signal (z-score),[26],-0.268
